About 64,000 (15%) of roughly 420,000 compounds were called active. This list was built around the results that the source calls inconclusive (neither active nor inactive); the mix of calls is not that of the screen. Calls follow the shape of the dose curve; as a rule, active = well fitted inhibition curve with a large enough effect; inconclusive = small, poorly fitted or top-dose-only effect; inactive = flat fitted curve, though single readings scatter. Potencies of inconclusive entries are left out as doubtful fits.
Experiment: qHTS for Inhibitors of human tyrosyl-DNA phosphodiesterase 1 (TDP1): qHTS in cells in absence of CPT; also: nearly all actives have a fitted effect of over 55% in size
Conditions: DT40 Tdp1-/- hTDP1 cells, no CPT, ATP luminescence, 48 h; activity change, negative = growth inhibition: at 46.2 µM (top of the series) unless noted
Outline: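 Camptothecin absent (DMSO only). Human TDP1-complemented DT40 knockout cells, 400 cells/well, 37 °C for minimum 48 hr; ATP measured via CellTiter-Glo, 30 min dark incubation, luminescence.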
In the case of `CC[C@@H](C)C(NC(=O)OC(C)(C)C)c1cn([C@@H](Cc2ccc(O)cc2)C(=O)N2CCN(C(=O)OC(C)(C)C)CC2)nn1` (stereo not given in full), the Potency is reported as inconclusive [inhibitor, single point]. For `COc1ccc(C(=O)N(O)c2ccccc2)cc1`, the activity change, negative = growth inhibition was inactive: -5.74% [at 9.04 µM]. For `CN(C)c1ccc(/C=N/NC(=O)c2ccc(Cn3cc(Br)cn3)o2)cc1`, the Potency was inconclusive [inhibitor, single point]. For `COc1ccccc1C(=O)Nc1ccc(Oc2nnc(-c3ccc(C)cc3)c3ccccc23)cc1`, the Potency was inconclusive [inhibitor, single point]. With `CON(C)S(=O)(=O)c1cccc(C(=O)NC2CCSc3ccccc32)c1` (stereo not given) the Potency was inconclusive [inhibitor, partial curve, poor fit]. With `O=C(NC1CCCCC1)/C(=N\O)c1ccccn1` the Potency was “inactive”. In the case of `COc1ccc(N2CCN(c3c(S(=O)(=O)c4ccccc4)cnc4ccc(OC)cc34)CC2)cc1`, the Potency is reported as active: 18.4 µM. In the case of `O=C(CSc1nnc(Cn2nnc3ccccc32)o1)N(Cc1ccc(F)cc1)c1ccccc1`, the Potency is reported as active: 7.08 µM. For `COc1ccc2c(c1)c1c(c(=O)n(-c3ccc(F)c(Cl)c3)c(=O)n1CC(=O)N1CCCC1)n2C`, the Potency was “inactive”. In the case of `Cc1ccc(OCC(=O)Nc2ccon2)c([N+](=O)[O-])c1`, the Potency is reported as “inactive”. With `C/C(=N\NC(=O)c1ccc(O)cc1O)c1cccnc1` the Potency was “inactive”. For `O=C(Nc1ccc(S(=O)(=O)NC2CCCCC2)cc1)c1ccc(Br)o1`, the Potency was inconclusive [inhibitor, single point]. With `Cc1cccc(NC(=O)c2ccc3c(c2)OCCO3)c1` the Potency was inconclusive [inhibitor, single point]. For `Cc1ccc(C2=C(CC(=O)O)C(=O)CC2)cc1`, the Potency was inconclusive [inhibitor, partial curve, poor fit]. In the case of `CCOC(=O)[C@H]1[C@H]2COc3cc(OC)ccc3[C@@H]2N2C(=O)c3cc(OC)c(OC)cc3NC(=O)[C@@]12C`, the Potency is reported as inconclusive [inhibitor, single point]. For `O=C(C(=Cc1ccc(F)cc1)C(=O)c1ccccc1)c1ccccc1`, the Potency was active: 16.4 µM. For `COc1ccc2c(c1)CC/C(=C/c1ccccn1)C2=O`, the Potency was inconclusive [inhibitor, single point]. With `COC(=O)C1CCN(C(=O)COC(=O)Cc2c[nH]c3ccccc23)CC1` the Potency was “inactive”. With `CC(C)(C)NC(=O)c1cc([N+](=O)[O-])ccc1N1CCCCC1` the activity change, negative = growth inhibition was inconclusive: -30.3% [inhibitor]. In the case of `CSC[C@H]1CN(c2ccccc2)C(=O)[C@@H]1CC(=O)Nc1ccccc1`, the Potency is reported as inconclusive [inhibitor, partial curve]. For `COc1cc(-c2nnc(SC/C=C/c3ccccc3)n2N)cc(OC)c1OC`, the Potency was inconclusive [inhibitor, single point]. With `c1ccc(Oc2nc(NCc3ccco3)nc(NCc3ccco3)n2)cc1` the Potency was inconclusive [inhibitor, single point]. For `OC(COc1ccc(F)cc1)CN1CCN(c2ccccc2F)CC1` (stereo not given), the activity change, negative = growth inhibition was inconclusive: -31.7% [inhibitor]. In the case of `Cc1cc(C)nc(SCC(=O)Nc2ccccc2[N+](=O)[O-])n1`, the Potency is reported as “inactive”. In the case of `O=C(NCc1ccc(Cl)c(Cl)c1)c1cc(C2CCCCN2C(=O)CCc2ccccc2)on1` (stereo not given), the Potency is reported as inconclusive [inhibitor, single point]. For `Clc1cccc(CNc2ccn3nc(-c4ccc(OCc5ccccc5)cc4)cc3n2)c1`, the Potency was inconclusive [inhibitor, single point]. For `N#CC1c2ccccc2C=CN1C(=O)N(c1ccccc1)c1ccccc1` (stereo not given), the Potency was inconclusive [inhibitor, single point]. With `CC(C)C(NC(=O)c1ccc(Cl)cc1)C(=O)O` (stereo not given) the Potency was “inactive”. For `O=C(CSc1ncnc2[nH]ncc12)Nc1nc(-c2ccc(F)c(F)c2)cs1`, the Potency was active: 20.6 µM. For `CCc1c(C(=O)NC2CCCc3ccccc32)[nH]c(C)c1C(C)=O` (stereo not given), the Potency was active: 14.6 µM. In the case of `COc1cc(CNC(=O)c2ccc3c(c2)N(C)C(=O)C2CCCCN32)cc(OC)c1OC` (stereo not given), the Potency is reported as inconclusive [inhibitor, single point]. In the case of `Cc1ccccc1S(=O)(=O)c1c(C)cc(C)n(C(C)C)c1=O`, the Potency is reported as inconclusive [inhibitor, single point]. With `O=C(N/N=C\c1ccc(COc2ccc([N+](=O)[O-])cc2)o1)c1ccc(Cl)cc1` the Potency was inconclusive [inhibitor, single point]. For `CCOc1ccc(CN(C)C(=O)c2ccc(NS(=O)(=O)c3ccc4[nH]c(=O)[nH]c4c3)cc2)cc1`, the Potency was “inactive”. With `Cc1ccc(NC(=O)COc2ccccc2)cc1Cl` the Potency was “inactive”. In the case of `O=S(=O)(NCCNCC=Cc1ccc(Br)cc1)c1cccc2cnccc12`, the Potency is reported as active: 14.1 µM. For `COc1ccc(-c2cc(C(F)(F)F)c(C#N)c(SCC(=O)Nc3ccccc3C#N)n2)cc1`, the Potency was inconclusive [inhibitor, partial curve]. With `Cc1cc(C)nc(NC2=NCCN2C(=O)NC2CCCCC2)n1` the Potency was active: 16.4 µM. For `CCOc1ccc(N(CC(=O)Nc2ccccc2)S(C)(=O)=O)cc1`, the Potency was “inactive”. With `Cc1cccc(NC(=O)Nc2nnc(N(C)C3CCCCC3)s2)c1C` the activity change, negative = growth inhibition was inconclusive: -30.8% [inhibitor]. With `COc1cccc2cc(-c3cc(=O)oc4ccc(OCC(C)=O)cc34)oc12` the Potency was inconclusive [inhibitor, partial curve, poor fit]. For `O=C(OCCOc1ccccc1)c1cc(S(=O)(=O)N2CCOCC2)c(Cl)cc1Cl`, the Potency was inconclusive [inhibitor, single point]. With `C=CCn1c(Oc2cc(C)ccc2C)nc2c1c(=O)n(C)c(=O)n2C` the Potency was active: 16.4 µM. In the case of `CC(=O)NNC(=O)N1Cc2ccccc2Oc2ccc(Cl)cc21`, the Potency is reported as inconclusive [inhibitor, full curve, poor fit]. In the case of `COc1ccc(NC(=O)COC(=O)c2cccn2C)cc1S(=O)(=O)N1CCCCC1`, the Potency is reported as inconclusive [inhibitor, single point]. For `O=C(O)CCC(=O)N1CCN(c2nc(-c3ccccc3)c3cc(Br)ccc3n2)CC1`, the Potency was inconclusive [inhibitor, single point]. With `Cc1nn(CC(=O)NCc2ccco2)c(=O)c2cc3ccccc3n12` the Potency was “inactive”. For `OC1(c2cccs2)CN(c2ccc(Cl)cc2)C2=[N+]1CCCC2` (stereo not given), the Potency was inconclusive [inhibitor, partial curve, poor fit]. In the case of `O=C(NC1CCCCC1)C(c1ccc2ncccc2c1)N(Cc1cccs1)C(=O)c1cccs1` (stereo not given), the Potency is reported as inconclusive [inhibitor, single point]. For `Cc1ccc(CNC(=O)CSCC(=O)O)cc1`, the Potency was “inactive”. With `OC[C@@H]1[C@@H](c2ccc(Cl)cc2)C(c2cccc(Cl)c2)=NN1c1ccccc1` the Potency was active: 13 µM. For `CC(C)NC(=O)N1CCCC2(CCN(C(=O)c3ccco3)CC2)C1`, the Potency was “inactive”. In the case of `CC(C)CNS(=O)(=O)c1ccc(CC(C)C)cc1`, the Potency is reported as inconclusive [inhibitor, single point]. In the case of `CCOC(=O)c1sc(C)c2c1NC(C)(c1cccs1)NC2=O` (stereo not given), the Potency is reported as inconclusive [inhibitor, partial curve]. In the case of `Cc1oc(S(=O)(=O)N(C)C)cc1C(=O)Nc1ccc(F)cc1`, the Potency is reported as “inactive”. For `CC(=O)NC(C)(c1ccccc1)c1nc(-c2csc3ccccc23)cs1` (stereo not given), the Potency was active: 16.4 µM. For `Cc1cc(C(C)(C)C)ccc1OCCOCCN1CCCC1`, the Potency was inconclusive [inhibitor, single point]. In the case of `O=C(CCC(=O)N1Cc2ccccc2Oc2ncccc21)Nc1ccc(Cl)cc1`, the Potency is reported as inconclusive [inhibitor, single point]. With `O=c1c(CCc2ccccc2)nc2cnc(N3CCOCC3)nc2n1C1CC1` the Potency was “inactive”. In the case of `CC(=O)N1c2ccc(S(=O)(=O)NCC3CCC(C(=O)N4CC(C)CC(C)C4)CC3)cc2CC1C` (stereo not given), the Potency is reported as active: 13 µM. For `NC(=O)c1ccc(Nc2nc(C(N)c3ccccc3Cl)cs2)cc1` (stereo not given), the Potency was inconclusive [inhibitor, single point]. In the case of `CC1(C(=O)NCc2ccccc2Br)CCN1Cc1ccc(-c2ccccc2)o1` (stereo not given), the Potency is reported as inconclusive [inhibitor, single point]. In the case of `O=C(NCC1CCCC(CNC(=O)N2CCc3ccccc32)C1)N1CCc2ccccc21` (stereo not given), the Potency is reported as “inactive”. In the case of `CCOC(=O)C1=C(CC)Nc2ccccc2N=C1NC(=O)c1ccc(C)c(S(=O)(=O)N2CCOCC2)c1`, the Potency is reported as inconclusive [inhibitor, single point]. With `Cc1[nH]n2c(=O)c3c(nc2c1-c1ccc(F)cc1)CCCC3` the Potency was inconclusive [inhibitor, single point]. For `O=S(=O)(c1ccc(OC(F)(F)F)cc1)N1CCC(O)(c2cccc(C(F)(F)F)c2)CC1`, the Potency was inconclusive [inhibitor, single point]. In the case of `CCCN(CCC)C(=O)/C=C/c1cccc([N+](=O)[O-])c1`, the Potency is reported as inconclusive [inhibitor, single point]. In the case of `CCOc1cccc(CN2CCC(Oc3ccc(C(=O)N4CCCC4)cc3)CC2)c1O`, the Potency is reported as inconclusive [inhibitor, single point]. With `COc1ccc2nc(NCc3ccc(OC)c(OC)c3OC)sc2c1` the Potency was inconclusive [inhibitor, single point]. In the case of `O=c1nc2sc3ccccc3n2c(=O)n1-c1cccc(Cl)c1`, the Potency is reported as inconclusive [inhibitor, single point].

Reference: PubChem BioAssay AID686978 (National Center for Advancing Translational Sciences (NCATS), 2013)
% is scaled to controls: 0 for no effect and ±100 for the full control effect; potency is read from the fitted curve at half-maximal effect; tags tell the direction and shape of the fitted curve.
